# Some of the results follow.
# Test system: PfAP2-HC AP2 domain (GST-tagged)
# Assay: gcPBM binding intensity (ln(normalized median fluorescence intensity)); higher = stronger DNA binding
# In short: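 Plasmodium falciparum DNA-binding domains carrying a GST tag were expressed in E. coli and applied for 1 h, at about 25 μg on average, to an Agilent 4 × 180k array. The array held primer-extended double-stranded 36-bp intergenic genomic probes together with negative controls, and binding took place in 1× PBS with 1% milk, 0.2 mg/ml BSA, 0.5% salmon testes DNA and 0.03% Triton X-100. An Alexa488 anti-GST antibody detected bound protein, and the array was scanned at 488 nm. Binding intensity is taken as the highest Masliner-normalised natural-log median intensity across replicate spots of either probe orientation.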
row,Sequence,gcPBM binding intensity (ln)
1,GTATAACACAAGTGAAGTACAGGGGTAAACATTTAT [XGTACX_site3203],9.93
2,TACAGATAAAAGTACACACACACACCGATATATATA [CACACA_site4675],10.6
3,AATTTAAATTCATCACGTACATACGTGAATATACAC [XGTACX_site5220],9.76
4,ATTTTACATATTTGCACACATATATTTATATACATA [CACACA_site854],10
5,TTATTTGTTTAATATGCATGCTAAAAGGGTTGATGT [TGCATGCA_site581],9.56
6,GAGTAAAACAAATATACACACCATAAAGTTATAAAA [CACACA_site5008],10.1
7,AATATAAAAATGCACACACACAAAAAAAAAAAAAAA [CACACA_site6546],10.9
8,TTTAAAATATTGTATTGTACGCAATAAAAAATACCA [XGTACX_site182],9.65
9,ATAAGCATCTTTTGTGTGCACATAACAAAAAAAAAA,9.85
10,ATTAAATAAAATCATGCACACAATATATATTTTAAG [CACACA_site2495],9.71
11,TCTAACATATCTTTAATACACACTTAAAAAAGTACT [CACACA_site652],9.44
12,ATTTATCTATATATATGTACATATTATTTTTGTGGT [XGTACX_site7390],9.98
13,GATATACAATTTAAGTGTACTATAATAAAATATATA [XGTACX_site3013],9.6
14,ATAAAAAAATATAAATGTACATATATATATATATAT [XGTACX_site5620],9.82
15,TATATTAATTCGTTTTGTACACACATAATGAATAAT [XGTACX_site4618],9.78
16,TGAGAAAGCGCATATTGTACTATATATTTTAACCAC [XGTACX_site4098],9.69
17,AATCCATTCTATTTTTTACACACGTATGTAAATATT [CACACA_site8860],9.99
18,AATATATATGGACATGCATGGACATAATAATCTATT [TGCATGCA_site838],9.79
19,GAAAATAATGTTACATGTACGAATATGTAACTATTG [XGTACX_site6833],9.57
20,AAATACATATATACATGTACATAAATATATATATAT [XGTACX_site5367],9.72
21,ATAGATATACATATCACACATATATATATATATATA [CACACA_site4985],9.59
22,TAAGGTAGTTCTGTATCACACACATATATATATATA [CACACA_site8693],10.2
23,TTTGTAATAACATATGCATGTTCAAAAAATAAAATA [TGCATGCA_site817],9.56

row,Sequence,gcPBM binding intensity (ln)
1,ATTTTTTTATAAAATTTTTTATATATTAAATATTAT [CACACA_negctrl_site135],9.42
2,ACGTTTTATTTTTATTGTACTCACATTGAAATGAAT [XGTACX_site6094],10
3,ATATATTTATACATTTGTACATATACATATTTCTGA [XGTACX_site3982],9.64
4,ATTTTTTTTGTAAAAGTGCATATATATATATATATA,9.53
5,AAAATTGTGCTTTCACGGACACAAGATCGAAATAGA [XGTACX_site4068],9.73
6,ATATAAATATAAACATGTACATATATATATATATAT [XGTACX_site2824],9.7
7,GAAACGTTTTTGAGTAGTACACACACAATAAGGATG [XGTACX_site6809],10.2
8,AAATTTATATAAAACAGTACAATTAAAAAAAAAATA [XGTACX_site8015],9.68
9,ATATATATATATGTGTGTACTTATTTATTTATTTGT [XGTACX_site549],9.94
10,TTTTCTTAATATTTATGTATATATATAATATGATAT [TGCATGCA_negctrl_site572],9.61
11,TAATAAATCCTATATAGTACATATATGCAAGTATGT [XGTACX_site3955],9.68
12,ATGTAACACATATTTGGTACAGATAGATAAAAGTAT [XGTACX_site8291],9.87
13,TTTTTAAATAACCTATATATTATTATGAAACATAAA [CACACA_negctrl_site916],9.22
14,GTATAATATATTTATAGTACATAATTATTTATAAAT [XGTACX_site1826],9.67
15,TATATATATATATTCACACATAAAAATAAAATAAAA [CACACA_site4774],9.74
16,ATATTATGTGATTGTGCACACTGGAGATTTTTTTTA [CACACA_site1453],10
17,CCCGTAAATACAAAAAGTACAAAAGTTCATCTTATA [XGTACX_site1154],9.5
18,CAATATTATTATATTTGTACACATGCGTATTTTTTA [XGTACX_site4154],9.86
19,TTAATATTGTATCCAAGTACACAAATTATTATATTT [XGTACX_site8067],9.61
20,TAATAATAATATAAAATACACACCTATTATTTTTAC [CACACA_site4003],9.77
21,CATGATATATAAATATGTACATATATATATATATAT [XGTACX_site1760],10.3
22,ACATTAATATAAAGCACACATATATATAATATATAT [CACACA_site508],9.74
23,ATTGATTTTTAATATACACACATAAGTACCACAAAA [CACACA_site339],9.87

row,Sequence,gcPBM binding intensity (ln)
1,AAAAATATAAACTGCACACACAAAAAAAAAAGAGAA [CACACA_site1367],10.3
2,TATAACATATTTATATATGACATTATCTATTCATTT [CACACA_negctrl_site864],9.61
3,GCCTATATGTTTAGTTGTACTCCTAATATTATTTGT [XGTACX_site6060],9.84
4,CAAATTATTTCGAGGTGTACTTTTTTATATTATATT [XGTACX_site8309],9.79
5,CCTAATTTTTTTAGTTGTACTTTTTTTTTTTTTTAT [XGTACX_site7948],9.58
6,AATGTGTTCATATATGCACACGCATATATATTATTG [CACACA_site9274],9.79
7,TTTATAAATTGACACACACACATGTGAACATAAAAA [CACACA_site6978],10.1
8,AATTATATATTATCATGTACAAATATAGTAATACAA [XGTACX_site6845],9.68
9,AAAAAAAAAAAAAATAGTACGTAACTATAATTTCCT [XGTACX_site2457],9.65
10,AAATTATAAGTAAAAAGTACTTAATATATAATAAAC [XGTACX_site6065],9.74
11,CTTATACTTCTACATCGTACAAAAGATGGTATAATT [XGTACX_site2698],9.55
12,TAACTTAAATAATACATACACACATGTACATACAGA [CACACA_site1594],10.2
13,TATAATTTTTTTTGGGTGCTTGGGTAAATTTTATTA,10
14,CACGAAAAAAAAAAATGTACATAAAAATATGATACA [XGTACX_site2536],9.48
15,AAAAAAAAAAAAAAAAAAAAAGGACGGATGGATGGA [GTGCAC_negctrl_site527],9.62
16,TCTCATTTCAACAACAGTACATATCTATCTGTGTAT [XGTACX_site6897],9.75
17,GAAAGAGAAATATATACACACATATTTATATTTTTA [CACACA_site2066],9.83
18,ATACGTATATAATATACATGCATATATAGCACATAC [TGCATGCA_site376],9.83
19,ATAAAAAAAAAAAAAAATGAAGCATCACCGTGTAAT [XGTACX_negctrl_site288],9.65
20,TTTAATATGAATTTATGTACATATATATATATATAT [XGTACX_site6337],9.72
21,TATATTAAAAAAAAATGTACATATATATAATATATA [XGTACX_site1935],9.5
22,ATTTTTATTTTCTTTACACACCACATAACTTTTTTT [CACACA_site7826],9.94
23,ATATATATATATATATGTACATATATCTACATATAT [XGTACX_site7588],10.1

row,Sequence,gcPBM binding intensity (ln)
1,ACTTTTTAATATTTTAGTACACAGTAATTCTTACTA [XGTACX_site1425],9.75
2,AAAAAAAAAAAATACACACACATATATATATATATA [CACACA_site2224],10.3
3,TATGTAATAAATAGTACACACACACCGATATATATA [CACACA_site8389],10.3
4,TATAATAATATTATAGTGCATATTATTTATATATAA [GTGCAC_site9820],9.55
5,AAAAAGTGATTAAAATGTACAAAATGCATAAAAGAA [XGTACX_site6625],10
6,AAAGTAAAAAAAAAAACATGCATACGCTAATTTTTA [TGCATGCA_site301],9.38
7,GATATGTTAAATATATGTACATATATAAACCCAAAC [XGTACX_site6601],9.88
8,ATTTTAATACTTTTATATTAAATGTAGCACATCATA [XGTACX_negctrl_site273],9.45
9,CATTTTTTGCTTTCAACACACATACAATATAAATAA [CACACA_site7858],9.62
10,TTATTTATTTAGTAGTGTACTTTTTATATTTATAAT [XGTACX_site5978],9.57
11,TATCATATAAAACATGCACACATATGTACTCTTATA [CACACA_site9249],9.93
12,AAAAAATAAGATTGTACACACATAAATTCTTTGTCA [CACACA_site2089],9.84
13,CGTTCTATTTAGATATGTACTTAAATATATGATCAT [XGTACX_site2936],9.61
14,ATCATTTATTTTTTAAAAGTATATATATATATATAT [CACACA_negctrl_site220],9.59
15,TTAATAAAAATATATCCACACACATATATATATATG [CACACA_site8091],9.98
16,TTTTTTTTTTTTTAAATAATCATACATGTGAAATTG [GTGCAC_negctrl_site328],9.23
17,ACATATTATAACATATGTACATATATATATATATAA [XGTACX_site5567],9.69
18,AAATATAAGTTTTATTGTACATTATATAGCATATTT [XGTACX_site6618],9.6
19,TTTTGACATTAACTTAAAAAATAAATAATTATAAAA [XGTACX_negctrl_site552],9.11
20,TATATATATATAAGTGCACACTGAACCAAGAAAATT [CACACA_site5637],9.89

# Reference: the supplement of paper PMC11417369
